According to PubChem BioAssay AID624417 (National Center for Advancing Translational Sciences (NCATS), 2012):
The whole screen tested about 410,000 compounds, of which about 6,400 (1.6%) were called active. The shares of active, inactive and inconclusive entries below differ from those in the screen. The call rests on the fitted dose curve; in most records, active means well fitted inhibition curve with a large enough effect; inconclusive means small, poorly fitted or top-dose-only effect; inactive means no such curve, though single readings can be large or run the other way. Potencies of inconclusive entries are left out as doubtful fits.

molecular target: Glucagon-like peptide 1 receptor (Homo sapiens) (UniProt P43220); test: qHTS of GLP-1 Receptor Inverse Agonists (Inhibition Mode); conditions: HEK293 GLP-1R CRE-luciferase, luminescence, 24 h, GLP-1R form is constitutively active; series mostly up to 38.3 µM; further: nearly all actives have a fitted effect of over 55% in size
In short: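 HEK293 cells stably co-expressing constitutively active GLP-1R and a cAMP-responsive luciferase reporter were seeded in DMEM with 10% Nu serum, given compounds after 12 h, and incubated 24 h at 37 deg C. Luminescence was then read.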
Potency means the concentration at half of the fitted maximal effect; tags describe the fitted curve by direction and shape.

Sequence of UniProt P43220 (P43220 whole entry, looked up): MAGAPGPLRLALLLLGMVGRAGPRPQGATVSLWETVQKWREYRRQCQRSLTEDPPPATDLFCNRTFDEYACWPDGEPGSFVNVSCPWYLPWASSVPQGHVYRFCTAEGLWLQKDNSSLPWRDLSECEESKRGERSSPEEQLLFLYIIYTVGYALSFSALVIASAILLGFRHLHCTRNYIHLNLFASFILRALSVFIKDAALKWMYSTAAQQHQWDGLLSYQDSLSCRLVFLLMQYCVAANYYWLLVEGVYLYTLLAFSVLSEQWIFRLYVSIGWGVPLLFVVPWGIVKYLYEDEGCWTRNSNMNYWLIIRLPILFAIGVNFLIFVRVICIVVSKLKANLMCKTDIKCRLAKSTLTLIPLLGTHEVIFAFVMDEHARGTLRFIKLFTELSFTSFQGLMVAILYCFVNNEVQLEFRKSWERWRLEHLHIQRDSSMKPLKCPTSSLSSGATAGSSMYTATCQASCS

Row | Structure (SMILES) | Potency
1 | CCc1ccc(C2=CC(c3cccc(C)c3)n3c(nc4ccccc43)N2)cc1 (stereo not drawn) | inconclusive [inhibitor, single point]
2 | CCOC(=O)[C@@H]1[C@H]2COc3cc(OC)ccc3[C@@H]2N2C(=O)N(c3ccc(Br)cc3)C(=O)[C@]12C | inconclusive [inhibitor, single point]
3 | COCOCCn1cc(CN2CCS(=O)(=O)N(Cc3ccc(-c4ccc(Cl)c(Cl)c4)cc3)C(C)C2=O)nn1 (stereo not drawn) | active: 11.2 µM
4 | Cc1cc(C)cc(-n2nnnc2SCC(=O)Nc2cccc(NC(=O)c3ccco3)c2)c1 | inconclusive [inhibitor, partial curve, poor fit]
5 | COc1cc(NC(=O)c2cc3cccc(OC)c3o2)cc(C(=O)Nc2cccc(C(F)(F)F)c2)c1 | inconclusive [inhibitor, full curve]
6 | Cc1ccc(NCc2nnc(SCc3ccc(C#N)cc3)n2Cc2ccco2)c(C)c1 | inconclusive [inhibitor, partial curve]
7 | Cc1csc2nc(COC(=O)c3ccc(F)cc3)cc(=O)n12 | inconclusive [inhibitor, single point]
8 | COc1ccc(C2CC2/C(=N/OC(=O)c2cccs2)c2ccccc2)cc1 (stereo not drawn) | inconclusive [inhibitor, single point]
9 | Cn1c2c(c3ccccc31)CCN(CCCCN1CCN(c3ccccc3)CC1)C2=O | inconclusive [inhibitor, partial curve, poor fit]
10 | Cc1ccc(-c2nc(N)sc2-c2ccc(C)cc2)cc1 | inconclusive [inhibitor, single point]
11 | O=C(CSc1nc2ccccc2n1Cc1ccc(F)cc1)N1CCN(c2ccc(F)cc2)CC1 | inconclusive [inhibitor, single point]
12 | COc1ccc(CN(C)C(=O)CCN(c2ccccc2)S(=O)(=O)c2ccc(C)cc2)c(OC)c1 | inconclusive [inhibitor, single point]
13 | CNC(=S)N(C)[C@H]1c2c(ccc3ccccc23)OC[C@H]1CO | inconclusive [inhibitor, partial curve, poor fit]
14 | CC(SCc1ccccc1)C(=O)N/N=C/c1ccc2c(c1)OCO2 (stereo not drawn) | inconclusive [inhibitor, partial curve]
15 | Cc1ccc2c(c1)c1c(n2CC(O)CN2CCCCC2C)CCCC1 (stereo not drawn) | inconclusive [inhibitor, single point]
16 | COc1cc(CNCCN(C)C)c(Br)cc1OC1CCCC1 | inconclusive [inhibitor, full curve, poor fit]
17 | CCOC(=O)N1CCC(NC(=O)c2cc(C)c3c(C)nn(-c4ccccc4)c3n2)CC1 | inactive
18 | COc1ccc(F)cc1C(=O)C1CCCN(Cc2cccn2-c2ccccn2)C1 (stereo not drawn) | inconclusive [inhibitor, partial curve, poor fit]
19 | COc1ccc(Nc2nc(N)c(C(=O)c3ccc(OC)cc3)s2)cc1 | inconclusive [inhibitor, full curve, poor fit]

Row | Structure (SMILES) | Potency
20 | CC1(C(=O)Nc2ccc3c(c2)OCO3)Cc2c(-c3ccc4c(c3)OCO4)ccnc2O1 (stereo not drawn) | inconclusive [inhibitor, full curve, poor fit]
21 | Cc1ccc2cccc(OCC(=O)NCc3ccco3)c2n1 | inactive
22 | OCC1(CCOc2ccccc2)CCN(CC2=Cc3cc(Cl)ccc3OC2)CC1 | inconclusive [inhibitor, partial curve, poor fit]
23 | CCc1cccc(C)c1NC(=O)c1cc(S(=O)(=O)N(C)Cc2ccccc2)ccc1F | inconclusive [inhibitor, partial curve, poor fit]
24 | Cc1ccc(-n2ncc3c(N4CCCCC4)ncnc32)cc1Cl | active: 0.794 µM
25 | CCOc1ccc(C(O)(c2ccccc2OC)C(CN2CCCC2)c2ccccc2)cc1 (stereo not drawn) | inconclusive [inhibitor, partial curve, poor fit]
26 | Cc1ccc(C)c(OCC(=O)Nc2ccc(N3CCOCC3)cc2N2CCOCC2)c1 | inactive
27 | Nc1ccccc1C(=O)NCCCN1CCN(c2cccc(Cl)c2)CC1 | inconclusive [inhibitor, partial curve, poor fit]
28 | O=C(Nc1ccccc1)c1nc[nH]c1C(=O)NCCNC(=O)c1[nH]cnc1C(=O)Nc1ccccc1 | inconclusive [inhibitor, full curve, poor fit]
29 | CCCCCCCCN1C(=O)[C@H](CC(=O)NCCC(C)C)C[C@@]2(C(=O)OC)CCCCC=C12 | inconclusive [inhibitor, single point]
30 | O=C(Nc1ccccc1Cl)c1ccc(F)c(S(=O)(=O)NCc2ccc(Cl)c(Cl)c2)c1 | inconclusive [inhibitor, single point]
31 | COc1cc(OC)cc(C(=O)N[C@H](C(=O)Nc2ccc(F)cc2F)C(C)C)c1 | inconclusive [inhibitor, partial curve, poor fit]
32 | Cc1ccc(S(=O)(=O)N(CC(=O)N2CCOCC2)c2ccc(Br)cc2)cc1 | inconclusive [inhibitor, single point]
33 | CC(C)c1ccc(NC(=S)N2CCN(S(=O)(=O)c3ccccc3)CC2)cc1 | inconclusive [inhibitor, partial curve, poor fit]
34 | C(#Cc1ccc(C#CCN2CCCC2)cc1)CN1CCCC1 | active: 3.55 µM
35 | COc1ccc(C(=O)NNC(=O)C23CC4CC(CC(C4)C2)C3)c(OC)c1 | inconclusive [inhibitor, single point]
36 | COc1ccc(S(=O)(=O)N2CCCCC2)cc1N(C)S(=O)(=O)c1ccccc1 | inconclusive [inhibitor, single point]
37 | CC(C)(C)c1ccc(/C=N/NC(=S)NC2CCCCC2)cc1 | inconclusive [inhibitor, partial curve, poor fit]
38 | CC(=O)c1ccc(OCc2cc(C(=O)N3CCC(Oc4ccccc4C)CC3)no2)cc1 | inconclusive [inhibitor, single point]
